According to the supplement of paper PMC3334620:
Over roughly 33,000 sequences, “E-score (-0.5 to 0.5)” has its median near -0.016; the highest 2% begin near 0.32. Some of the results follow.

Target: T1, Stp1 (UniProt B3LFK1)
T1 sequence: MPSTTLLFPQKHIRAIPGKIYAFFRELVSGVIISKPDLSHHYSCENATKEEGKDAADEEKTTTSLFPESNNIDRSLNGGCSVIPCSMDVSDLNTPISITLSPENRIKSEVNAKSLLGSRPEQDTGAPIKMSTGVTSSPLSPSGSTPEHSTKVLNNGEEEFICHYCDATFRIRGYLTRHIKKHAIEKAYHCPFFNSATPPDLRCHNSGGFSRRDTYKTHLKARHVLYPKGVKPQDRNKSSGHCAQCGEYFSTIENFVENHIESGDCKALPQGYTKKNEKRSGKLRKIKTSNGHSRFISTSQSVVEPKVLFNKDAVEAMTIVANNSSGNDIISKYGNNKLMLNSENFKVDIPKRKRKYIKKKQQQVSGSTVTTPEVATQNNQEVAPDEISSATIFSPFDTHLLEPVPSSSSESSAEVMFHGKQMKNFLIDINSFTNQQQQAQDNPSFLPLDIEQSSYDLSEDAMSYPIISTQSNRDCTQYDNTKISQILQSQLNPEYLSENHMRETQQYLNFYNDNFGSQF
Assay: PBM E-score (8-mer binding enrichment) (E-score (-0.5 to 0.5)); higher = stronger / more preferred TF binding; most listed sequences are background and not binding sites
Conditions: protein concentration: 200 nM; construct: GST-full length
Method in brief: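 For each ungapped eight-base word taken together with its reverse complement, the Universal PBM Analysis Suite assigned an E-score. Binding data came from GST-tagged yeast transcription factors, applied at about 100-200 nM, on universal all-10-mer Agilent arrays made double-stranded by primer extension. Fluorescent anti-GST marked bound protein, and scans were normalised with masliner.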

Sequence | PBM E-score
CCTAGTAC | -0.0241
CTGCACCA | -0.199
CCAGGCAA | -0.0743
CCTGGACA | -0.187
GTGGTGAA | -0.0667
TGCAACCA | -0.11
CACGGGCA | 0.231
CTTCTGGC | -0.0139
AACTTTGT | 0.112
GGTTATCA | -0.21
ATTCCCCA | -0.27
CAGTAACC | 0.0449
CATTCACG | 0.0454
GGTGTGGA | -0.00275
GGACCTAA | -0.0501
GGGGGACA | -0.445
CGTGGAAG | 0.0292
CGCCTTAA | 0.211
CCCTTAAC | -0.155
AGACCCTC | -0.313
ATCACTTC | 0.0639
CGCCATGC | 0.226
GGGTAACA | -0.132
CACGCGTC | 0.0631
ATATAATA | 0.205

Sequence | PBM E-score
CACGGGGC | 0.241
CGCCGTGA | 0.376
AGAGGTCA | -0.276
CAATCGTA | 0.121
CACAGCGC | 0.148
GTCCTAAC | -0.0457
CGCCGCCG | 0.402
ATCCAAAG | 0.168
ACTAGGGC | -0.00553
AAGGGGGG | -0.365
TACTGGAA | -0.0529
ATTAACCG | 0.111
CAGTACTG | -0.0293
ATGGATGC | -0.102
GACTCTAC | -0.266
AAAATACG | 0.0892
CAATTTCA | 0.0644
GGAGGGCA | 0.0187
CGGTCTAG | -0.113
ACTCGTCA | -0.0629
CTTAGGGA | -0.232
AGTGTCAG | -0.135
ACTCCATC | -0.113
AAGTTAGG | 0.0337
ACAACAAG | 0.0597

Sequence | PBM E-score
CAGCACAC | -0.198
GCTGCGGA | 0.106
GGACCCTA | -0.26
GTGTATCA | 0.146
CCCCAACG | -0.158
CGAGTAAC | 0.0688
ACGTGCAT | 0.0861
CTAGCACA | -0.163
ACTTCCCC | -0.309
TTCGACAA | 0.124
GCTGCCAA | 0.0212
CACCCACG | 0.131
ATATGGCA | 0.273
ACAGACTC | -0.118
GATGTTGC | 0.223
AATCCTCG | -0.184
AGTGTCTC | -0.194
CCGTTTAA | 0.349
CGCTGTCA | -0.253
ACCAGTTA | 0.00467
GTTCTTCA | 0.174
GTGTGTGA | 0.126
GAATGGTA | 0.0879
ATGGCAAC | 0.289
AAATCGTA | 0.125

Sequence | PBM E-score
CACACAGG | -0.0675
CTTTTTAC | 0.182
CGGAATAA | -0.0973
ATGGTAAA | 0.0118
AAGATCGT | -0.134
AGTTCTTG | 0.133
CACTGCAC | 0.0109
CCCGGATC | -0.139
AGCCATAC | -0.0165
TGCACAAA | 0.0921
CTCTTTTA | -0.183
AGGTTCCG | -0.0225
AAAGATCC | 0.0284
CAGGGTCG | -0.13
GGTGACAA | 0.0331
TTCCTAAA | 0.0739
GCATCACC | 0.0109
CCCGGCAA | 0.0207
GCCCTGCC | 0.277
AGGTGAGG | -0.0113
CTGAACGC | -0.103
CAATACGC | 0.175
CCGGCCGG | 0.0502
AGAAGTCC | -0.126
AGGTATTA | 0.118

Sequence | PBM E-score
ACTACTAG | 0.161
TCGGCGAA | -0.0263
AGCGCGCT | -0.172
GCTTGCCA | -0.0643
CTGAAGTC | -0.0901
ACTCTAAA | 0.118
AAGAGGTG | 0.0582
CTACCGCA | 0.0499
CATAATCG | 0.0926
ATTAAGTC | 0.0493
TCAAATGA | -0.083
AATGAAGT | 0.0747
ATATCGGG | -0.00836
GGACTCTA | -0.344
ACGGCGAG | 0.437
AACGGGAA | 0.0169
GCATACAA | 0.14
GCATCCCC | -0.143
ACGTGTAG | -0.122
ACCACGTG | -0.0625
ACCAGCGC | -0.0679
GCTTGATA | 0.145
TCCTAAGA | 0.00923
GTTGTAAA | -0.118
ATATGATG | -0.103

Sequence | PBM E-score
AGGGCAGC | -0.214
AAACATGG | 0.0475
ATGCACAA | -0.0204
CGTCGGTA | -0.0891
AGTCACCC | -0.104
GAATAAAA | 0.155
TCGCCCAA | 0.055
ATGAATAC | 0.16
CAACCGGG | -0.101
TGATTCAA | 0.141
CACATGGA | -0.0235
TGTGATAA | 0.103
AAGTGCAA | 0.0993
CACGCCGG | -0.0191
TGAAAAAA | 0.196
ATTATTAA | 0.0896
GCCATCGC | 0.0959
ATGAGGAC | -0.235
AGATAATG | 0.194
CGTTTGCC | 0.101
CTCATAGA | 0.0227
ACAAAGTG | -0.0329
TATACTGA | 0.266
ACAATCGA | 0.0853
ACGCGCGG | 0.316

Sequence | PBM E-score
CGTATTAG | 0.223
TCTAGAGA | -0.167
CCCTGAGG | -0.0789
CCATAATA | 0.0721
CAGTGATC | 0.0271
ATTCATCC | -0.105
AAAAGGTT | -0.0226
AGATAGTC | -0.137
CCCATCGC | 0.0933
GTTTCTTA | 0.0294
CGTGACCC | 0.00978
AGTGGCCG | -0.0146
CTCTCGCC | -0.211
GGCTGAAA | 0.103
AGATCGAA | 0.118
ATGTCGGA | -0.0545
GAATTACA | -0.0444
GCGGGAAA | 0.0749
AGGTAGTG | -0.105
AAATTGGA | 0.0945
ACCAGGTA | -0.355
AACGATTG | 0.0458
